Measured values published in PubChem BioAssay AID1346428 (National Center for Advancing Translational Sciences (NCATS), 2018).
Out of some 48,000 compounds screened, about 1,200 (2.5%) were called active. About 2% were inconclusive and are not listed.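 How the source made its calls: active means activation of at least 60% and not above a set upper limit (about 1 call in 100 departs from these limits); inconclusive means activation of 40% to 60%, or above that upper limit; inactive means activation under 40%.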 This is one part of the list.

These compounds were tested against Probable G-protein coupled receptor 32 (Homo sapiens) (UniProt O75388) (assay: qHTS for Agonists of Human Resolvin D1 Receptor DRV1). Settings: CHO-K1 GPR32 beta-arrestin PathHunter luminescence, 90 min; at 76.9 µM; hits give high values; zero percent set by DMSO-only wells.
From the text: Endogenous resolution of inflammation is known to be transduced through various GPCRs and their natural mediators of lipid nature. Resolvin D1 (RvD1) is one of the active players in resolution of acute inflammation through regulation of anti-inflammatory pathways; it is known to enhance phagocytosis of human macrophages, limits neutrophils infiltration, etc. […] The search for GPR32-activating small molecules with anti-inflammatory effects similar to its natural omega-3 derivative ligand in order to use them as research tools for further studies of inflammation and its resolution was the goal of this screening project. For primary screening assay, we used CHO-K1 GPR32 beta-arrestin cell line (DiscoveRx, #93-0321C2A) and the PathHunter(R) beta-Arrestin Assay (DiscoveRx) which measures recruitment of beta-arrestin to the GPR32 and generates chemiluminescent signal. These engineered cells stably transfected with GPR32 co-express GPR32-fused small 42-amino acid fragment of beta-Gal called ProLinktrade mark, and […] -tagged beta-Arrestin fusion protein. When GPR32 is activated by a ligand, it stimulates binding of beta -Arrestin to ProLink-tagged GPR32, and two parts of beta-Gal complement forming a functional enzyme. Upon substrate (PathHunter(R) Detection reagent) addition, beta-Gal hydrolyzes it and generates a chemiluminescent signal.
The cells were thawed and plated in thawing media containing F-12 HAM (Invitrogen, #11765-054), 10% FBS (Invitrogen, #10082), 1x Glutamine, and 1x Pen/Strep onto the 175-mm flask for 24 hours. Then, thawing media was replaced with Growth media which contains 800microg/mL Geneticin (Invitrogen, #10131) and 300microg/mL Hygromycin B (Invitrogen, #10687) in addition to described above. For the assay, the cells were harvested at ~80% confluent stage with Cell Dissociation buffer (Gibco, #13151), and seeded at 2,500 cells/ 3microL/well in assay media (PathHunter(R) Cell Plating Reagent, DiscoverX, #93-0563R1B) using MultiDrop Combi dispenser (Thermo Scientific, Logan, UT) onto white solid bottom tissue culture-treated 1536-well plates (Greiner # 789173-F) and allowed to attach overnight at 37 degrees C, 95% humidity, 5% CO2, . Next, 23nL/well of compound solutions in DMSO were added with a Pin Tool (Kalypsis, San Diego, CA) to the assay plates. As the basal control (EC0), 23 nL/well of DMSO was used on each plate. The cells were incubated in the presence of compounds or DMSO for 90 minutes at 37 degrees C, 5% CO2. Subsequently, 1.5microL/well of PathHunter(R) Detection Reagent prepared per the manufacturer's instructions was added to the assay plates with BioRAPTR FRDtrade mark dispenser (Beckman Coulter, San Francisco, CA) and incubated for 1 hour at ambient temperature prior to the measurement of the luminescent signal on ViewLux(R) uHTS Microplate Imager (Perkin Elmer, Waltham, MA).

Chain of UniProt O75388 (O75388 whole entry, looked up): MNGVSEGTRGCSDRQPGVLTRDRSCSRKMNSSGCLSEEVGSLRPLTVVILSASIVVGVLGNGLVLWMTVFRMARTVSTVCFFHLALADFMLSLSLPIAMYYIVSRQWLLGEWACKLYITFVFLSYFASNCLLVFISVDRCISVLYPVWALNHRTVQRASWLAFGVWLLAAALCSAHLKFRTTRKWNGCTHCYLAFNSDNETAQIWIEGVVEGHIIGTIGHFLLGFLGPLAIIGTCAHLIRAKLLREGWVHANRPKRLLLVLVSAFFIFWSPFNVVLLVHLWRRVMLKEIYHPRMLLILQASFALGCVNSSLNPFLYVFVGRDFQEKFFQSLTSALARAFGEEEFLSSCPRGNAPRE

activation, inactive:
Cc1ccc(CSc2nc(-c3cccs3)ccc2C#N)cc1 -10.9%
CC(C)c1cnc2c(c1SCC(=O)Nc1ccccc1C(F)(F)F)c(=O)n(C)c(=O)n2C -5.92%
COc1ccc(-n2nc(C(=O)Nc3ccccc3OC)c3c4ccccc4n(C)c3c2=O)cc1Cl -9.87%
Cc1cccc(N2CCN(c3cc(C)nc4c(-c5ccc(Cl)cc5)c(C)nn34)CC2C)c1 (centres undefined) 6.1%
Cc1nnc(SCc2ccc(Cl)cc2)c2cc3occc3n12 9.85%
CCOc1ccc(NC(=O)NCCCN2CCN(c3ccc(F)cc3)CC2)cc1 9.38%
O=c1[nH]c(=O)c2[nH]c(=O)[nH]c2[nH]1 0.0854%
CC(C)Oc1ccc(CNC(=O)CN2C(=O)CCc3cc(S(=O)(=O)N4CCCCC4)ccc32)cc1 7.23%
Cc1cc(C)cc(N2C(=O)CSC23C(=O)N(CC(=O)NCCc2ccccc2)c2ccccc23)c1 (centres undefined) 5.52%
Cc1ccc(CSCc2ccc(C(=O)NCCc3ccc(Cl)cc3)o2)cc1 -12.3%
COc1ccc(NC(=O)CCS(=O)(=O)c2cccc3nonc23)cc1Cl -1.27%
CN(C(=O)c1ccc2c(c1)N(Cc1cccc(Cl)c1)C(=O)c1ccccc1S2=O)C1CCCCC1 (centres undefined) -32%
CCOC(=O)C1=C(CS(=O)(=O)c2ccc(C)cc2)NC(=O)NC1c1ccc(C(C)C)cc1 (centres undefined) 28.7%
Cc1oc2ncn(C)c(=O)c2c1C(=O)NC(C)c1ccccc1 (centres undefined) -0.68%
COc1ccccc1NCc1cccn1-c1nnc(N2CCOCC2)s1 8.39%
Cc1ccc(C)c(CN2C(=O)CSc3ccc(C(=O)NCc4ccc(F)cc4)cc32)c1 18%
O=C(CSC1=Nc2ccccc2N=C(c2ccc(F)cc2)C1)NCc1ccc(F)cc1 -27.6%
CCS(=O)(=O)N1CCc2cc(C(=O)Nc3cccc(Cl)c3C)ccc21 47.2%
O=C(c1cccc(Br)c1)N1CCN(Cc2cc(=O)n3nc(-c4ccccc4)sc3n2)CC1 -0.857%
Cc1ccc(CSc2nc3cccnc3n2Cc2ccc(C(=O)NCCc3ccccc3)cc2)cc1 15.7%
CCC(=O)N1c2nc(-c3ccco3)nn2C2(CCCCC2)[C@@H]2CCCC[C@@H]21 -28.8%
COc1ccc(N2CCN(C(CNC(=O)C(=O)NCCCN(C)C)c3cccnc3)CC2)cc1 (centres undefined) 3.68%
CCOc1c(Cl)cc(Cl)cc1CNCCSc1nnnn1C 19.9%
O=C(Nc1cc2c(cc1C(=O)c1ccccc1Cl)OCCO2)c1ccc(Br)cc1 -10.5%
Cc1nc2c(-c3ccccc3)c(C)nn2c(C)c1CCC(=O)NCc1ccccc1Cl -3.85%
Cc1cccc(CNC(=O)C2CCN(c3nnc(-n4c(C)ccc4C)s3)CC2)c1 -13.5%
Cc1ccc(N2CC(NC(=O)c3ccc(S(=O)(=O)N4CCOCC4)cc3)CC2=O)cc1C (centres undefined) -5.58%
Cc1cc2oc(=O)c(CC(=O)O)c(C)c2c2occ(-c3ccc(F)cc3)c12 -3.17%
Cc1cccc(-c2noc(CN(C(=O)c3ccccc3Cl)C(C)C)n2)c1 -10.1%
O=C(c1ccc2c(c1)OCCO2)N(Cc1cccnc1)c1nc2c(F)cccc2s1 -20.1%
Cn1c(C(=O)NCCc2ccccc2)cc2c(=O)n3ccccc3nc21 -7.83%
COc1ccc(CCNC(=O)CCCn2c(=O)c3ccccc3n(Cc3ccc(F)cc3Cl)c2=O)cc1OC -2.35%
COc1ccc(Cn2c(CNS(=O)(=O)c3ccc4c(c3)CCCC4)nc3cccnc32)cc1 7.09%
Cc1ccc(CNc2nc3ccccc3c3nc(-c4cccc(C)c4)nn23)cc1 2.44%
Cc1ccc2c(c1)c1c(c(=O)n(Cc3ccccc3)c(=O)n1Cc1cccc(C(F)(F)F)c1)n2C -13%
COc1ccc(CNC(=O)CCc2c(C)nn(-c3ccc(N4CCCCC4)nn3)c2C)c(OC)c1 -16%
CCCSc1oc(-c2cccs2)nc1S(=O)(=O)c1ccc(Cl)cc1 -24.8%
O=C(c1cnc(N2CCCCC2)c2ccccc12)N1CCN(c2ccccc2F)CC1 -28.1%
Cc1ccc(-n2ncc(C(=O)NCCCN3CCN(c4cccc(Cl)c4)CC3)c2-n2cccc2)cc1 -20.1%
CC(=O)N1CCc2cc(CNS(=O)(=O)c3ccc(Br)s3)ccc21 -8.08%
O=C(CSC1=Nc2ccccc2N=C(c2ccc(F)cc2)C1)NCc1ccccc1 -7.71%
c1csc(C2=NC(c3ccncc3)=Nc3ccccc3N2)c1 -12.4%
CCCc1cc(=O)[nH]c(=S)[nH]1 -38.2%
O=C(NCCc1ccc(Cl)cc1)c1ccc(Cn2c(=O)c3cccn3c3cccnc32)cc1 -22.3%
CC1CCCN(Cc2cn3c(-c4cccc(Br)c4)nnc3s2)C1 (centres undefined) -23.8%
CCOc1ccc(C(=O)NCCc2sc3nc(-c4ccc(Cl)cc4)nn3c2C)cc1OCC -9.52%
Cc1noc(Cn2c(=O)c3ccccc3n(CC(=O)Nc3cccc(Cl)c3C)c2=O)n1 -12.2%
CC1CCN(c2nn3c(=O)c(C(=O)NCc4ccc(Cl)cc4)cnc3s2)CC1 -2.75%
CC[N+]1(CC)CCC(=C(c2ccccc2)c2ccccc2)C1C (centres undefined) 6.96%
CC(=O)N1CCCc2cc(S(=O)(=O)N(C)CC(=O)Nc3ccc(C)cc3C)ccc21 -3.89%
N#Cc1nc(/C=C/c2ccc(F)cc2)oc1N1CCN(c2ccccc2)CC1 -26.4%
CC(C)c1ccc(OCC(=O)Nc2c(Cl)ccc3nsnc23)cc1 45%
COc1ccc(-n2c(=O)c3c4c(sc3n(Cc3cc(C)ccc3C)c2=O)CN(C(C)=O)CC4)c(OC)c1 1.34%
Cc1ccccc1-n1cc(-c2ccccc2)nc1SCC(=O)Nc1ccc(F)cc1 -35.5%
